# Results taken from the supplement of paper PMC8728848.
# The list shows a part of the results.
# B1: VLRB.aGPA.23-GCN4-biotin (Petromyzon marinus) (protein)
# chain: ACPSQCSCSGTEVNCAGKSLASVPAGIPTTTRVLYLNSNQITKLEPGVFDRLANLRELHLWGNQLVSLPPGVFDNLANLEKLWLNSNQLTSLPAGLFDRLVNLEHLGLCCMKLTELPSGAFDKLTRLKQLGLDQNQLKSIPDGAFARLPSLTHVWLHTNPWDCQCTDILYLSGWVAQHSSIVGEGWPWRHSPDSAKCSGTNTPVRAVTEASTSPSKCP
# Columns and labels:
# Experiment in all cases: glycan array binding signal (z-score within array); higher = stronger binding
# Settings in all cases: glycan notation: IUPAC condensed, linker removed
# [1] = molecular target: Gal(a1-6)Glc
# How it was run: (§1)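 The Consortium for Functional Glycomics database supplied 3228 glycan arrays, of which those lacking an available protein sequence were dropped. The binding signal, a within-array Z-score, was averaged across arrays of the same protein sequence and across linkers. Negative scores can be read as non-binding.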
# [2] = molecular target: Gal(b1-2)Gal
# How it was run: as §1
# [3] = molecular target: Gal(b1-3)Gal
# How it was run: as §1
# [4] = molecular target: Gal(b1-3)Gal(b1-4)GlcNAc
# How it was run: as §1
# [5] = molecular target: Gal(b1-3)GalNAc
# How it was run: as §1
# [6] = molecular target: Gal(b1-3)GalNAc(a1-3)[Fuc(a1-2)]Gal(b1-4)Glc
# How it was run: as §1
# [7] = molecular target: Gal(b1-3)GalNAc(a1-3)[Fuc(a1-2)]Gal(b1-4)GlcNAc
# How it was run: as §1
# [8] = molecular target: Gal(b1-3)GalNAc(b1-3)Gal
# How it was run: as §1
# [9] = molecular target: Gal(b1-3)GalNAc(b1-3)Gal(a1-4)Gal(b1-4)Glc
# How it was run: as §1
# [10] = molecular target: Gal(b1-3)GalNAc(b1-4)Gal(b1-4)Glc
# How it was run: as §1
# [11] = molecular target: Gal(b1-3)GalNAc(b1-4)[Neu5Ac(a2-3)]Gal(b1-4)Glc
# How it was run: as §1
# [12] = molecular target: Gal(b1-3)GlcNAc
# How it was run: as §1
# [13] = molecular target: Gal(b1-3)GlcNAc(a1-3)Gal(b1-4)GlcNAc
# How it was run: as §1
# [14] = molecular target: Gal(b1-3)GlcNAc(a1-6)Gal(b1-4)GlcNAc
# How it was run: as §1
# [15] = molecular target: Gal(b1-3)GlcNAc(b1-2)Man
# How it was run: as §1
# [16] = molecular target: Gal(b1-3)GlcNAc(b1-2)Man(a1-3)[Gal(b1-3)GlcNAc(b1-2)Man(a1-6)]Man(b1-4)GlcNAc(b1-4)GlcNAc
# How it was run: as §1
# [17] = molecular target: Gal(b1-3)GlcNAc(b1-2)Man(a1-3)[Gal(b1-3)GlcNAc(b1-2)Man(a1-6)]Man(b1-4)GlcNAc(b1-4)[Fuc(a1-6)]GlcNAc
# How it was run: as §1
# [18] = molecular target: Gal(b1-3)GlcNAc(b1-2)Man(a1-3)[GlcNAc(b1-4)][Gal(b1-3)GlcNAc(b1-2)Man(a1-6)]Man(b1-4)GlcNAc(b1-4)GlcNAc
# How it was run: as §1
# [19] = molecular target: Gal(b1-3)GlcNAc(b1-2)[Gal(b1-3)GlcNAc(b1-6)]Man(a1-6)[Gal(b1-3)GlcNAc(b1-2)Man(a1-3)]Man(b1-4)GlcNAc(b1-4)GlcNAc
# How it was run: as §1
# [20] = molecular target: Gal(b1-3)GlcNAc(b1-3)Gal(b1-3)GlcNAc
# How it was run: as §1
# [21] = molecular target: Gal(b1-3)GlcNAc(b1-3)Gal(b1-4)Glc
# How it was run: as §1
# [22] = molecular target: Gal(b1-3)GlcNAc(b1-3)Gal(b1-4)GlcNAc
# How it was run: as §1
# [23] = molecular target: Gal(b1-3)GlcNAc(b1-3)Gal(b1-4)GlcNAc(b1-2)Man(a1-3)[Gal(b1-3)GlcNAc(b1-3)Gal(b1-4)GlcNAc(b1-2)Man(a1-6)]Man(b1-4)GlcNAc(b1-4)GlcNAc
# How it was run: as §1
# [24] = molecular target: Gal(b1-3)GlcNAc(b1-3)Gal(b1-4)GlcNAc(b1-2)[Gal(b1-3)GlcNAc(b1-3)Gal(b1-4)GlcNAc(b1-6)]Man(a1-6)[Gal(b1-3)GlcNAc(b1-3)Gal(b1-4)GlcNAc(b1-2)Man(a1-3)]Man(b1-4)GlcNAc(b1-4)[Fuc(a1-6)]GlcNAc
# How it was run: as §1
# [25] = molecular target: Gal(b1-3)GlcNAc(b1-3)Gal(b1-4)GlcNAc(b1-3)Gal(b1-4)GlcNAc(b1-2)[Gal(b1-3)GlcNAc(b1-3)Gal(b1-4)GlcNAc(b1-3)Gal(b1-4)GlcNAc(b1-6)]Man(a1-6)[Gal(b1-3)GlcNAc(b1-3)Gal(b1-4)GlcNAc(b1-3)Gal(b1-4)GlcNAc(b1-2)Man(a1-3)]Man(b1-4)GlcNAc(b1-4)[Fuc(a1-6)]GlcNAc
# How it was run: as §1
# [26] = molecular target: Gal(b1-3)GlcNAc(b1-3)Gal(b1-4)GlcNAc(b1-6)[Gal(b1-3)GlcNAc(b1-3)]Gal(b1-4)Glc
# How it was run: as §1
# [27] = molecular target: Gal(b1-3)GlcNAc(b1-3)Gal(b1-4)[Fuc(a1-3)]GlcNAc
# How it was run: as §1
# [28] = molecular target: Gal(b1-3)GlcNAc(b1-3)Gal(b1-4)[Fuc(a1-3)]GlcNAc(b1-6)[Gal(b1-3)GlcNAc(b1-3)]Gal(b1-4)Glc
# How it was run: as §1
# [29] = molecular target: Gal(b1-3)GlcNAc(b1-3)GalNAc
# How it was run: as §1
# [30] = molecular target: Gal(b1-3)GlcNAc(b1-6)Gal(b1-4)GlcNAc
# How it was run: as §1
# [31] = molecular target: Gal(b1-3)GlcNAc(b1-6)GalNAc
# How it was run: as §1
# [32] = molecular target: Gal(b1-3)GlcNAc(b1-6)[Gal(b1-3)]GalNAc
# How it was run: as §1
# [33] = molecular target: Gal(b1-3)GlcNAc6S
# How it was run: as §1
# [34] = molecular target: Gal(b1-3)[Fuc(a1-4)]GlcNAc
# How it was run: as §1
# [35] = molecular target: Gal(b1-3)[Fuc(a1-4)]GlcNAc(b1-2)Man
# How it was run: as §1
# [36] = molecular target: Gal(b1-3)[Fuc(a1-4)]GlcNAc(b1-2)Man(a1-3)[Gal(b1-3)[Fuc(a1-4)]GlcNAc(b1-2)Man(a1-6)]Man(b1-4)GlcNAc(b1-4)[Fuc(a1-6)]GlcNAc
# How it was run: as §1
# [37] = molecular target: Gal(b1-3)[Fuc(a1-4)]GlcNAc(b1-3)Gal(b1-3)[Fuc(a1-4)]GlcNAc
# How it was run: as §1
# [38] = molecular target: Gal(b1-3)[Fuc(a1-4)]GlcNAc(b1-3)Gal(b1-4)[Fuc(a1-3)]GlcNAc
# How it was run: as §1
# [39] = molecular target: Gal(b1-3)[Fuc(a1-4)]GlcNAc(b1-6)GalNAc
# How it was run: as §1
# [40] = molecular target: Gal(b1-3)[GlcNAc(b1-6)]GalNAc
# How it was run: as §1
# [41] = molecular target: Gal(b1-3)[Neu5Ac(a2-6)]GalNAc
# How it was run: as §1
# [42] = molecular target: Gal(b1-3)[Neu5Ac(a2-6)]GlcNAc(b1-4)Gal(b1-4)Glc
# How it was run: as §1
# [43] = molecular target: Gal(b1-3)[Neu5Ac(b2-6)]GalNAc
# How it was run: as §1
# [44] = molecular target: Gal(b1-4)Gal
# How it was run: as §1
# [45] = molecular target: Gal(b1-4)GalNAc(a1-3)[Fuc(a1-2)]Gal(b1-4)GlcNAc
# How it was run: as §1
binder,measurement,setting,value
B1,glycan array binding signal (z-score),[1],-0.08
same,glycan array binding signal (z-score),[2],3.68
same,glycan array binding signal (z-score),[3],-0.028
same,glycan array binding signal (z-score),[4],0.046
same,glycan array binding signal (z-score),[5],0.232
same,glycan array binding signal (z-score),[6],-0.079
same,glycan array binding signal (z-score),[7],-0.083
same,glycan array binding signal (z-score),[8],-0.045
same,glycan array binding signal (z-score),[9],-0.066
same,glycan array binding signal (z-score),[10],0.519
same,glycan array binding signal (z-score),[11],-0.078
same,glycan array binding signal (z-score),[12],-0.05
same,glycan array binding signal (z-score),[13],-0.084
same,glycan array binding signal (z-score),[14],-0.082
same,glycan array binding signal (z-score),[15],-0.072
same,glycan array binding signal (z-score),[16],-0.076
same,glycan array binding signal (z-score),[17],-0.082
same,glycan array binding signal (z-score),[18],-0.072
same,glycan array binding signal (z-score),[19],-0.081
same,glycan array binding signal (z-score),[20],-0.077
same,glycan array binding signal (z-score),[21],-0.089
same,glycan array binding signal (z-score),[22],-0.086
same,glycan array binding signal (z-score),[23],-0.064
same,glycan array binding signal (z-score),[24],-0.062
same,glycan array binding signal (z-score),[25],-0.064
same,glycan array binding signal (z-score),[26],-0.08
same,glycan array binding signal (z-score),[27],-0.078
same,glycan array binding signal (z-score),[28],-0.081
same,glycan array binding signal (z-score),[29],-0.083
same,glycan array binding signal (z-score),[30],-0.077
same,glycan array binding signal (z-score),[31],-0.081
same,glycan array binding signal (z-score),[32],-0.076
same,glycan array binding signal (z-score),[33],-0.09
same,glycan array binding signal (z-score),[34],-0.081
same,glycan array binding signal (z-score),[35],-0.066
same,glycan array binding signal (z-score),[36],-0.082
same,glycan array binding signal (z-score),[37],-0.079
same,glycan array binding signal (z-score),[38],-0.081
same,glycan array binding signal (z-score),[39],-0.066
same,glycan array binding signal (z-score),[40],-0.079
same,glycan array binding signal (z-score),[41],-0.079
same,glycan array binding signal (z-score),[42],-0.08
same,glycan array binding signal (z-score),[43],-0.082
same,glycan array binding signal (z-score),[44],-0.084
same,glycan array binding signal (z-score),[45],-0.087
